In all, about 310,000 compounds went through this assay and about 2,200 (0.71%) showed an effect of 50% or more. The effect is printed as a negative number. Some of the results follow.
Target: human ether-à-go-go-related gene (hERG) potassium channel (human, UniProt Q12809)
Test: primary screen, population patch clamp on CHO cells stably expressing hERG

human ether-à-go-go-related gene (hERG) potassium channel, sequence (Q12809 whole entry, looked up): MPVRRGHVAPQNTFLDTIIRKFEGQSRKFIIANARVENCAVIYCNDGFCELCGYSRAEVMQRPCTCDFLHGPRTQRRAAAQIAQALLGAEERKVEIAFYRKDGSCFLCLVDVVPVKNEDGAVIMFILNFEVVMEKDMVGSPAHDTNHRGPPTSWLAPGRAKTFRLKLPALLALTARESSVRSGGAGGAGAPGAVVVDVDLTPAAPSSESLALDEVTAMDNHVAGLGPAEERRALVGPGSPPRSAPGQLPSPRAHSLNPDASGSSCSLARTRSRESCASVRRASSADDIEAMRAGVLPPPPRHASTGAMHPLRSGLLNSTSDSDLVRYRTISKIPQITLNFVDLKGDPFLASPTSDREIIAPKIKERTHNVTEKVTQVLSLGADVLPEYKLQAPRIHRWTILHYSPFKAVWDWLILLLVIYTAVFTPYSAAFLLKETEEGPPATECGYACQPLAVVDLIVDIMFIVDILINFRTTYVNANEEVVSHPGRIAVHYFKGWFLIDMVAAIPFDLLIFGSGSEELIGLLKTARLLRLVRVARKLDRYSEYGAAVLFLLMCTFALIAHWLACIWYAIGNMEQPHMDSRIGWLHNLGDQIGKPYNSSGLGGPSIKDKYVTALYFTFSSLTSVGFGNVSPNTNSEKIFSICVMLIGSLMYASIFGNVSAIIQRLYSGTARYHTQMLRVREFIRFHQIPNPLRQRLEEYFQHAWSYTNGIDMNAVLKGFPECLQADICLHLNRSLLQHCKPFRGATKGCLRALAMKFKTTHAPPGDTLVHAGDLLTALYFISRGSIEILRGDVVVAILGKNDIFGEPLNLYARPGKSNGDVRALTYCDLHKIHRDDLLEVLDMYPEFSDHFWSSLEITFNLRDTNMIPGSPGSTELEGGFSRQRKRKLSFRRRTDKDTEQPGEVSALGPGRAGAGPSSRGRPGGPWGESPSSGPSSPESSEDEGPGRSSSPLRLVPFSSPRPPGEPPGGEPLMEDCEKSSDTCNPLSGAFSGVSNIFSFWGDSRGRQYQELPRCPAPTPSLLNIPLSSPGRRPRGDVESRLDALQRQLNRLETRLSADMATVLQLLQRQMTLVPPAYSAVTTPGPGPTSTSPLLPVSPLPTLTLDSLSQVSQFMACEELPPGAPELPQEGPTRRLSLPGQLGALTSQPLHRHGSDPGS

Row | SMILES | hERG current change (%, negative = inhibition) at 1uM [%]
1 | NCCNC[C@@H]1COC2(CCCCCCCCCCC2)O1 | 11.5
2 | CCN(C(=O)c1ccc(NC(=O)Cc2ccccc2)cc1)c1ccccc1 | -7.24
3 | COC(=O)[C@@H](NCc1cccc(CN[C@H](C(=O)OC)c2ccccc2)c1)c1ccccc1 | 7.42
4 | COC(=O)C1=C(C(=O)OC)[C@@H]2N(C)c3ccccc3[C@@]23C[C@@H](C(=O)OC)N(C(=O)c2ccco2)C3=N1 | 2.5
5 | Cc1cccc(C(=O)OCC(=O)NCC(C)C)c1O | 16.1
6 | Cc1cc(S(=O)(=O)NCCCn2ccnc2)c(C)cc1Cl | 0.782
7 | O=S(=O)(NCCCCCNS(=O)(=O)c1ccccc1)c1ccccc1 | 11.4
8 | O=C(Nc1ccc(C(=O)N2CCCCC2)cc1)C1CCCCC1 | 0.109
9 | Cc1ccc(-c2nc(CN(C)C3CCOC3)c(C)o2)s1 (centres unmarked) | 7.45
10 | Cc1cc(C)cc(OCC(=O)N(Cc2ccc(N(C)C)cc2)C2CCS(=O)(=O)C2)c1 (centres unmarked) | 15.3
11 | CCOc1cc(NC(=S)NCC2CCCO2)c(OCC)cc1NC(=O)C1CC1 (centres unmarked) | 14.7
12 | Cc1ccc(NCc2nnc(SCC(=O)O)n2Cc2ccccc2)cc1Cl | 14.4
13 | O=C(Nc1nc(=O)n(C(=O)C2CC2)s1)c1ccccc1 | 2.74
14 | CCOc1ccc(NC(=O)CN(C)C(=O)c2cc(-c3ccncc3)nc3ccccc23)cc1OCC | -0.704
15 | CCOC(=O)c1c(-c2cccc([N+](=O)[O-])c2)csc1NC(=O)CCCOc1ccccc1 | 6.83
16 | Nc1ccn(-c2ccc(Cl)cc2)c(=O)c1 | 12.3
17 | CCCCCCN=C(C)C1=C(O)C(C(=O)OC)C(C)(C)CC1=O (centres unmarked) | -2.64
18 | O=c1oc2ccccc2c(Nc2ccccc2)c1CN1CCCCC1 | -17.7
19 | Cc1cc(Cl)ccc1OCC(=O)NC1CCCC1 | -0.343

Row | SMILES | hERG current change (%, negative = inhibition) at 1uM [%]
20 | CC(C(=O)c1ccc(-c2ccccc2)cc1)[n+]1ccccc1.[Br-] (centres unmarked) | 10.6
21 | O=[N+]([O-])c1ccccc1S(=O)(=O)N1CCCC(C(F)(F)F)C1 (centres unmarked) | 8.01
22 | COc1ccc(N2CCN(C(=O)COC(=O)CCOc3cc(C)ccc3C)CC2)cc1 | 2.26
23 | CCc1cccc(OCCCCNCCOC)c1 | 10.7
24 | O=C1CC(Nc2ccc(N3CCOCC3)cc2)C(=O)N1c1ccccc1 (centres unmarked) | 16.3
25 | O=C1CC(c2ccco2)CC(O)=C1C=NCC1NCCc2ccccc21 (centres unmarked) | 1.21
26 | CCN(CC)S(=O)(=O)c1cccc(C(=O)NCCc2ccccc2)c1 | -5.67
27 | O=C(O)c1cc(-c2ccc3ccccc3n2)nc2ccccc12 | 6.03
28 | COc1ccc(CNC(=O)C/C(C)=N/NC(=O)C23CC4CC(CC(C4)C2)C3)cc1 | 7.33
29 | COc1cccc(N2C(=O)c3cccnc3C2O)c1 (centres unmarked) | 13.3
30 | COc1ccc(C2C(C#N)=C(N)Oc3cc(C)[nH]c(=O)c32)c(OC)c1OC (centres unmarked) | 8.69
31 | N#CCn1c(CN2CCCC2)nc2ccccc2c1=O | 12.2
32 | CCN(CC)c1ccc(NC(=O)CCN2C(=O)c3ccccc3S2(=O)=O)c(C)c1 | 18.2
33 | CCC(=O)Nc1ccc(NC(=O)/C=C/c2ccc(Cl)cc2)cc1 | 17.8
34 | CC(C)N1CCN(C(=O)c2ccc(OC3CCN(CCc4ccccc4)CC3)cc2)CC1 | 7.01
35 | CC1N(O)C(c2ccc(Cl)cc2Cl)N(O)C1(C)C (centres unmarked) | 8.08
36 | COc1ccc(CCNC(=O)c2ccc(CS(=O)Cc3ccc(Cl)cc3)o2)cc1OC (centres unmarked) | -4.01
37 | O=C(COC(=O)CN1C(=O)c2ccccc2C1=O)Nc1cccc(F)c1 | 5.95
38 | COc1cc(OC)cc(C(=O)N2CCN(C3CCN(Cc4ccccc4)CC3)CC2)c1.O=C(O)C(=O)O | 0.551

Row | SMILES | hERG current change (%, negative = inhibition) at 1uM [%]
39 | C=CCn1c(SCC(=O)Nc2ccc(C(=O)OC(C)C)cc2)nnc1-c1cccs1 | 9.31
40 | Cc1cccc(C)c1NC(=O)CN(C)C(=O)CC1CC2CCC1C2 (centres unmarked) | 13.4
41 | CCCc1[nH]n(-c2ccc([N+](=O)[O-])cc2)c(=O)c1C=NCCCn1ccnc1 | -50.1
42 | COc1ccc(-n2ncc3c(NCCCn4ccnc4)ncnc32)cc1 | -4.83
43 | CN(Cc1ccccc1)C(=O)CN1C(=O)C2C3C=CC(C3)C2C1=O (centres unmarked) | 2.89
44 | COc1ccc(CNC(=O)CN(C(=O)c2csnn2)c2cccc3ccccc23)cc1 | 1.15
45 | COc1ccccc1NC(=O)CSc1nc2c(sc3ccccc32)c(=O)n1CCN(C)C.Cl | 15.1
46 | CC1=C(C(=O)OC(C)C)C(/C=C/c2ccccc2)NC(=O)N1 (centres unmarked) | 9.91
47 | CCCCNC(=O)c1cc(C)nn1-c1ccccc1 | 11.9
48 | CCOc1ccccc1-n1c(SCC(=O)Nc2nccs2)nnc1-c1ccoc1C | 11.5
49 | CC1CC(=O)Nc2ccccc2N1S(=O)(=O)c1ccc(F)cc1F (centres unmarked) | 7.34
50 | O=S(=O)(c1cc(Cl)ccc1Br)N1CCOCC1 | 2.79
51 | COc1cc(/C=N/NC(=O)c2sc3ccccc3c2Cl)ccc1OC(=O)c1ccc([N+](=O)[O-])cc1 | 9.73
52 | CC(C)[C@H](NC(=O)C1CC(=O)N(c2ccc(F)cc2)C1)C(=O)N1CCCCC1 (some centres unmarked) | 5.88
53 | S=c1[nH]nc2nnc3ccccc3n12 | 12.8
54 | CCCCc1ccc(NC(=O)c2ccc(NS(C)(=O)=O)cc2)cc1 | 17.1
55 | COc1ccc(OCCC(=O)Nc2nccs2)cc1 | 11.3
56 | CC(C)(C)n1nnnc1C(c1cccs1)N1CCN(C(=O)c2ccco2)CC1 (centres unmarked) | -0.148
